The list shows a part of the results. The main result of the screen is listed elsewhere. These columns were measured beside it and carry no call. Most of these compounds were active or inconclusive in the main read-out, so they are no random draw. Potencies come from curve fits of mixed quality, noted in brackets. Numbered stars: 1 amine (or outer) side, 2 acyl side, 3 side chain; on linkers, the order of the positions; unused ones are H or OH. Bridge positions count the residues as written; N and C are the ends. Square brackets hold non-standard residues; d marks the D form. Peptide text beside a SMILES is read from it. I, II: the chains in the order shown. Actinocin(9to1) = Cc1c2oc3c(C)ccc(C(=O)[*:1])c3nc-2c(C(=O)[*:2])c(N)c1=O; aThr = C[C@H](O)[C@H](N)C(=O)O; NMeV = CN[C@H](C(=O)O)C(C)C; Sar = CNCC(=O)O
Assay: qHTS Assay for Lipid Storage Modulators (AID 1519)
Conditions: Drosophila S3 cells, BODIPY lipid droplet/cell ratio, laser cytometry, cells loaded with oleic acid
In short: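 Cells seeded at 5,000 per well were treated with compounds over a concentration series and loaded with oleic acid (400 uM, as added). Lipid droplet fluorescence (488 nm excitation, 500-530 nm channel) was read by laser-scanning cytometry and normalized to 20 uM Triacsin C.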

[1] = measured here: cell count channel max response
[2] = measured here: lipid channel max response
[3] = measured here: lipid (BODIPY) channel AC50
Tags give direction and shape of the fitted curve.

Row | Structure (SMILES) | max response [1] [%] | max response [2] [%] | AC50 (measured here: cell number channel AC50) | AC50 [3]
1 | O=c1c(-c2ccc(F)c(F)c2)nc2cncnc2n1Cc1ccc(F)cc1 | -0.714 | -32.7 |  | 
2 | C[C@@H](NCc1cc(Br)cc2[nH]c(=O)c(=O)[nH]c12)P(=O)(O)O | 4.05 | 8 |  | 
3 | CC(C)=CCC/C(C)=C/CC/C(C)=C/CSc1ccccc1C(=O)O | 55.9 | 56.3 |  | 
4 | Cc1ccc2c(c1)c1c3n2CCN[C@H]3CCC1 | 66.3 | 82 |  | 
5 | CC(=O)[C@H]1CCC2C3CC=C4C[C@@H](OS(=O)(=O)O)CC[C@]4(C)C3CC[C@@]21C (stereo partly drawn) | -5.01 | -1.88 |  | 
6 | C[C@H]1CC2[C@@H]3CCC4=CC(=O)C=C[C@]4(C)[C@@]3(Cl)[C@@H](O)C[C@]2(C)[C@@]1(O)C(=O)CO (stereo partly drawn) | 24.2 | 17.2 |  | 
7 | CC(=O)OCC(=O)[C@@]1(O)CC[C@H]2[C@@H]3CCC4=CC(=O)CC[C@]4(C)[C@H]3C(=O)C[C@@]21C | 40.1 | 37.7 |  | 
8 | CCCc1c(OCCCOc2ccc(OCC(=O)O)cc2)ccc(CC=O)c1O | 29 | 42.5 |  | 
9 | O=c1c(-c2ccc(Cl)cc2)nc2cnc(N3CCNCC3)nc2n1Cc1ccc(F)cc1 | -32.1 | -50.8 |  | 
10 | Cc1cccc(C)c1NC(=O)C[N+](C)(C)C | 41.9 | 43 |  | 
11 | CN(C)CCC(c1ccc(Br)cc1)c1ccccn1 (stereo not drawn) | 51.6 | 50.8 |  | 
12 | N=C(N)c1ccc(N)cc1 | 45.3 | 45.3 |  | 
13 | C[N+](C)(CCCCCC[N+](C)(C)CCCN1C(=O)c2cccc3cccc(c23)C1=O)CCCN1C(=O)c2cccc3cccc(c23)C1=O | 53 | 51.1 |  | 
14 | COc1ccc(-c2ccc(=N)n(CCCC(=O)O)n2)cc1 | -1.49 | -1.66 |  | 
15 | O=C(NCCN1CCCCC1)c1ccc(I)cc1 | 40.5 | 42.3 |  | 
16 | NC(=O)OCC(COC(N)=O)c1ccccc1 | 44 | 46.7 |  | 
17 | CC1=C(\C=C/C(C)=C/C=C\C(C)=C\C(=O)O)C(C)(C)CCC1 | 75.5 | 89.4 |  | 
18 | NC(N)=NCCC[C@H](N)C(=O)O | 41.7 | 42.6 |  | 
19 | c1ccc(-c2ccccn2)nc1 | -12.2 | -9.36 |  | 
20 | CC[C@]1(O)C[C@@H]2CN(CCc3c([nH]c4ccccc34)[C@](C(=O)OC)(c3cc4c(cc3OC)N(C)[C@H]3[C@](O)(C(=O)OC)[C@@H](C(=O)OC)[C@@]5(CC)C=CCN6CC[C@@]43[C@@H]65)C2)C1 | 39.8 | 40.6 |  | 
21 | NCCCCNS(=O)(=O)c1ccc2c(Cl)cccc2c1 | 45.6 | 55.9 |  | 
22 | COc1ccc2oc(-c3ccc(O)cc3)cc(=O)c2c1 | 53.5 | 64.9 |  | 

Row | Structure (SMILES) | max response [1] [%] | max response [2] [%] | AC50 (measured here: cell number channel AC50) | AC50 [3]
23 | Nc1ncnc2c1ncn2[C@@H]1O[C@H](C(=O)NC2CC2)[C@H](O)[C@H]1O | 59.3 | 63.3 |  | 
24 | CN1CCc2cc(Cl)c(O)cc2C(c2ccccc2)C1 (stereo not drawn) | 41.8 | 41.1 |  | 
25 | N[C@@H](C(=O)O)c1cc(O)ccc1Cl | 70.5 | 90.5 |  | 
26 | CCc1cc2c(c(CC)n1)CCC(=O)N2Cc1ccc(-c2ccccc2-c2nn[nH]n2)cc1 | 93.5 | 119 |  | 
27 | O=C(O)/C=C/c1cnc[nH]1 | 41.1 | 34.6 |  | 
28 | N[C@@H](Cn1ccc(=O)n(Cc2ccccc2C(=O)O)c1=O)C(=O)O | 26.8 | 32.8 |  | 
29 | N[C@H](Cn1ccc(=O)n(Cc2ccccc2C(=O)O)c1=O)C(=O)O | 26.7 | 30.7 |  | 
30 | COc1ccc(OC)c2c(=S)c3ccccc3[nH]c12 | 18.6 | 10.8 |  | 
31 | CCCCCCCCCC[Si](C)(C)CCC(=O)NC(Cc1ccc(C)cc1)c1ccccc1 (stereo not drawn) | 37.5 | 38.5 |  | 
32 | O=C(c1ccccc1)[C@@H]1O[C@H]1c1ccc(-c2ccccc2)cc1 | 68.8 | 98 |  | 
33 | O=c1c(O)c(-c2ccc(O)cc2)oc2ccc(O)cc12 | -23.5 | -26.4 | 2.51 µM [rising, full curve, poor fit] | 
34 | CSCCC(NC=O)C(=O)NC(CC(C)C)C(=O)NC(Cc1ccccc1)C(=O)O (stereo not drawn) | 27.9 | 39.9 |  | 
35 | CCCn1c(=O)c2[nH]c(-c3ccc(S(=O)(=O)O)cc3)nc2n(CCC)c1=O | 42.5 | 41.6 |  | 
36 | C(=C/c1ccccc1)/CN1CCN(C(c2ccccc2)c2ccccc2)CC1 | -17.9 | -32.6 |  | 
37 | COc1ccc(-n2c(=O)c(CCc3ccccc3)nc3cnc(OC)nc32)cc1 | -0.493 | 2.64 |  | 2.82 µM [rising, partial curve]
38 | Cc1c2oc3c(C)ccc(C(=O)N[C@@H]4C(=O)N[C@@H](C(C)C)C(=O)N5CCC[C@@H]5C(=O)N(C)CC(=O)N(C)[C@@H](C(C)C)C(=O)O[C@H]4C)c3nc-2c(C(=O)N[C@@H]2C(=O)N[C@@H](C(C)C)C(=O)N3CCC[C@@H]3C(=O)N(C)CC(=O)N(C)[C@@H](C(C)C)C(=O)O[C@H]2C)c(N)c1=O (I: [aThr]V[dP][Sar][NMeV] / II: [aThr]V[dP][Sar][NMeV]; ester I:1-I:C, II:1-II:C; linker I:N-II:N via Actinocin(9to1)) | 72.3 | 26.6 |  | 
39 | Cc1cc(O)c(C)c(O)c1C(=O)O | 21.4 | 34.1 |  | 39.8 µM [rising, single point]
40 | OC1CCC2Cc3ccccc3N=C12 (stereo not drawn) | 25.7 | 37.1 |  | 
41 | COc1ccc2[nH]cc(CCNc3ncncc3-c3ccoc3)c2c1 | -17.4 | -38.1 |  | 
42 | CCCCOc1ccc(OCCCN2CCOCC2)cc1 | 25 | 54.1 |  | 39.8 µM [rising, single point]
43 | CCN(CC)CCNC(=O)c1cc(Cl)c(N)cc1OC | 41.6 | 44.6 |  | 
44 | O=C(c1cnccn1)N1CCC2(CC1)CN(Cc1cc(C(F)(F)F)cc(C(F)(F)F)c1)C2 | 19.4 | 22.3 |  | 0.0355 µM [rising, full curve, poor fit]

— PubChem BioAssay (NCATS)
